# Test results from the supplement of paper PMC8728848.
# Some of the results follow.
# Columns and labels:
# Experiment in all cases: glycan array binding signal (z-score within array); higher = stronger binding
# Details in all cases: glycan notation: IUPAC condensed, linker removed
# [1] = target: Neu5Ac(a2-6)Gal(b1-4)GlcNAc(b1-3)Gal(b1-4)GlcNAc(b1-3)GalNAc
# Summary of the method: (§1)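 Arrays were curated from the Consortium for Functional Glycomics database, 3228 in total, and kept only where the protein sequence was available. Binding is expressed as a within-array Z-score. This score was averaged across arrays of the same protein sequence at different concentrations or buffers and across linkers, and negative values can be read as non-binding.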
# [2] = target: Neu5Ac(a2-6)Gal(b1-4)GlcNAc(b1-3)Gal(b1-4)GlcNAc(b1-3)[Neu5Ac(a2-6)Gal(b1-4)GlcNAc(b1-3)Gal(b1-4)GlcNAc(b1-6)]GalNAc
# Summary of the method: as §1
# [3] = target: Neu5Ac(a2-6)Gal(b1-4)GlcNAc(b1-3)Gal(b1-4)GlcNAc(b1-6)[Gal(b1-3)]GalNAc
# Summary of the method: as §1
# [4] = target: Neu5Ac(a2-6)Gal(b1-4)GlcNAc(b1-3)Gal(b1-4)[Fuc(a1-3)]GlcNAc(b1-3)Gal(b1-4)[Fuc(a1-3)]GlcNAc
# Summary of the method: as §1
# [5] = target: Neu5Ac(a2-6)Gal(b1-4)GlcNAc(b1-3)GalNAc
# Summary of the method: as §1
# [6] = target: Neu5Ac(a2-6)Gal(b1-4)GlcNAc(b1-3)[Neu5Ac(a2-6)Gal(b1-4)GlcNAc(b1-6)]GalNAc
# Summary of the method: as §1
# [7] = target: Neu5Ac(a2-6)Gal(b1-4)GlcNAc(b1-6)GalNAc
# Summary of the method: as §1
# [8] = target: Neu5Ac(a2-6)Gal(b1-4)GlcNAc(b1-6)[Gal(b1-3)GlcNAc(b1-3)]Gal(b1-4)Glc
# Summary of the method: as §1
# [9] = target: Neu5Ac(a2-6)Gal(b1-4)GlcNAc(b1-6)[Gal(b1-3)]GalNAc
# Summary of the method: as §1
# [10] = target: Neu5Ac(a2-6)Gal(b1-4)GlcNAc6S
# Summary of the method: as §1
# Neu5Ac(a2-6)GalNAc = target: Neu5Ac(a2-6)GalNAc
# Summary of the method: as §1
# [11] = target: Neu5Ac(a2-6)GalNAc(b1-4)GlcNAc
# Summary of the method: as §1
# [12] = target: Neu5Ac(a2-6)GalNAc(b1-4)GlcNAc6S
# Summary of the method: as §1
# [13] = target: Neu5Ac(a2-6)GlcNAc(b1-4)GlcNAc
# Summary of the method: as §1
# [14] = target: Neu5Ac(a2-6)GlcNAc(b1-4)GlcNAc(b1-4)GlcNAc
# Summary of the method: as §1
# Neu5Ac(a2-8)Neu5Ac = target: Neu5Ac(a2-8)Neu5Ac
# Summary of the method: as §1
# [15] = target: Neu5Ac(a2-8)Neu5Ac(a2-3)Gal(b1-3)GalNAc(b1-4)[Neu5Ac(a2-3)]Gal(b1-4)Glc
# Summary of the method: as §1
# [16] = target: Neu5Ac(a2-8)Neu5Ac(a2-3)Gal(b1-3)GalNAc(b1-4)[Neu5Ac(a2-8)Neu5Ac(a2-3)]Gal(b1-4)Glc
# Summary of the method: as §1
# [17] = target: Neu5Ac(a2-8)Neu5Ac(a2-3)Gal(b1-4)Glc
# Summary of the method: as §1
# [18] = target: Neu5Ac(a2-8)Neu5Ac(a2-3)Gal(b1-4)GlcNAc
# Summary of the method: as §1
# [19] = target: Neu5Ac(a2-8)Neu5Ac(a2-3)[Gal(b1-3)GalNAc(b1-4)]Gal(b1-4)Glc
# Summary of the method: as §1
# [20] = target: Neu5Ac(a2-8)Neu5Ac(a2-3)[GalNAc(b1-4)]Gal(b1-4)Glc
# Summary of the method: as §1
# [21] = target: Neu5Ac(a2-8)Neu5Ac(a2-8)Neu5Ac
# Summary of the method: as §1
# [22] = target: Neu5Ac(a2-8)Neu5Ac(a2-8)Neu5Ac(a2-3)Gal(b1-4)Glc
# Summary of the method: as §1
# [23] = target: Neu5Ac(a2-8)Neu5Ac(a2-8)Neu5Ac(a2-3)[Gal(b1-3)GalNAc(b1-4)]Gal(b1-4)Glc
# Summary of the method: as §1
# [24] = target: Neu5Ac(a2-8)Neu5Ac(a2-8)Neu5Ac(a2-3)[GalNAc(b1-4)]Gal(b1-4)Glc
# Summary of the method: as §1
# [25] = target: Neu5Ac(a2-8)Neu5Ac(a2-8)Neu5Ac(a2-8)Neu5Ac(a2-3)[GalNAc(b1-4)]Gal(b1-4)Glc
# Summary of the method: as §1
# [26] = target: Neu5Ac(a2-8)Neu5Gc(a2-3)Gal(b1-4)GlcNAc
# Summary of the method: as §1
# [27] = target: Neu5Ac(b2-6)Gal(b1-4)GlcNAc
# Summary of the method: as §1
# Neu5Ac(b2-6)GalNAc = target: Neu5Ac(b2-6)GalNAc
# Summary of the method: as §1
# [28] = target: Neu5Ac9Ac(a2-3)Gal(b1-3)GlcNAc
# Summary of the method: as §1
# [29] = target: Neu5Ac9Ac(a2-3)Gal(b1-4)GlcNAc
# Summary of the method: as §1
# [30] = target: Neu5Ac9Ac(a2-6)Gal(b1-4)GlcNAc
# Summary of the method: as §1
# [31] = target: Neu5Gc(a2-3)Gal(b1-3)GlcNAc
# Summary of the method: as §1
# [32] = target: Neu5Gc(a2-3)Gal(b1-3)[Fuc(a1-4)]GlcNAc
# Summary of the method: as §1
# Neu5Gc(a2-3)Gal(b1-4)Glc = target: Neu5Gc(a2-3)Gal(b1-4)Glc
# Summary of the method: as §1
# [33] = target: Neu5Gc(a2-3)Gal(b1-4)GlcNAc
# Summary of the method: as §1
# [34] = target: Neu5Gc(a2-3)Gal(b1-4)GlcNAc(b1-3)Gal(b1-4)GlcNAc(b1-2)Man(a1-3)[Neu5Gc(a2-3)Gal(b1-4)GlcNAc(b1-3)Gal(b1-4)GlcNAc(b1-2)Man(a1-6)]Man(b1-4)GlcNAc(b1-4)GlcNAc
# Summary of the method: as §1
# [35] = target: Neu5Gc(a2-3)Gal(b1-4)[Fuc(a1-3)]GlcNAc
# Summary of the method: as §1
# [36] = target: Neu5Gc(a2-6)Gal(b1-4)GlcNAc
# Summary of the method: as §1
# Neu5Gc(a2-6)GalNAc = target: Neu5Gc(a2-6)GalNAc
# Summary of the method: as §1
# [37] = target: Neu5Gc(a2-8)Neu5Ac(a2-3)Gal(b1-4)GlcNAc
# Summary of the method: as §1
# [38] = target: Neu5Gc(a2-8)Neu5Gc(a2-3)Gal(b1-4)GlcNAc
# Summary of the method: as §1
# [39] = target: Neu5Gc(a2-8)Neu5Gc(a2-3)Gal(b1-4)GlcNAc(b1-3)Gal(b1-4)GlcNAc
# Summary of the method: as §1
# [40] = target: Neu5Gc(a2-8)Neu5Gc(a2-6)Gal(b1-4)GlcNAc
# Summary of the method: as §1
# [41] = target: Neu5Gc(b2-6)Gal(b1-4)GlcNAc
# Summary of the method: as §1
binder,measurement,setting,value
OGAN (protein) MVQKESQATLEERESELSSNPAASAGASLEPPAAPAPGEDNPAGAGGAAVAGAAGGARRFLCGVVEGFYGRPWVMEQRKELFRRLQKWELNTYLYAPKDDYKHRMFWREMYSVEEAEQLMTLISAAREYEIEFIYAISPGLDITFSNPKEVSTLKRKLDQVSQFGCRSFALLFNDIDHNMCAADKEVFSSFAHAQVSITNEIYQYLGEPETFLFCPTEYCGTFCYPNVSQSPYLRTVGEKLLPGIEVLWTGPKVVSKEIPVESIEEVSKIIKRAPVIWDNIHANDYDQKRLFLGPYKGRSTELIPRLKGVLTNPNCEFEANYVAIHTLATWYKSNMNGVRKDVVMTDSEDSTVSIQIKLENEGSDEDIETDVLYSPQMALKLALTEWLQEFGVPHQY,glycan array binding signal (z-score),[1],-0.057
same,glycan array binding signal (z-score),[2],-0.073
same,glycan array binding signal (z-score),[3],-0.038
same,glycan array binding signal (z-score),[4],-0.06
same,glycan array binding signal (z-score),[5],-0.063
same,glycan array binding signal (z-score),[6],-0.077
same,glycan array binding signal (z-score),[7],-0.036
same,glycan array binding signal (z-score),[8],-0.051
same,glycan array binding signal (z-score),[9],-0.091
same,glycan array binding signal (z-score),[10],-0.052
same,glycan array binding signal (z-score),Neu5Ac(a2-6)GalNAc,-0.071
same,glycan array binding signal (z-score),[11],-0.08
same,glycan array binding signal (z-score),[12],-0.055
same,glycan array binding signal (z-score),[13],-0.066
same,glycan array binding signal (z-score),[14],-0.055
same,glycan array binding signal (z-score),Neu5Ac(a2-8)Neu5Ac,-0.063
same,glycan array binding signal (z-score),[15],-0.033
same,glycan array binding signal (z-score),[16],-0.058
same,glycan array binding signal (z-score),[17],-0.057
same,glycan array binding signal (z-score),[18],-0.079
same,glycan array binding signal (z-score),[19],-0.052
same,glycan array binding signal (z-score),[20],-0.034
same,glycan array binding signal (z-score),[21],-0.014
same,glycan array binding signal (z-score),[22],-0.034
same,glycan array binding signal (z-score),[23],-0.099
same,glycan array binding signal (z-score),[24],-0.065
same,glycan array binding signal (z-score),[25],-0.016
same,glycan array binding signal (z-score),[26],-0.058
same,glycan array binding signal (z-score),[27],-0.089
same,glycan array binding signal (z-score),Neu5Ac(b2-6)GalNAc,-0.022
same,glycan array binding signal (z-score),[28],-0.118
same,glycan array binding signal (z-score),[29],-0.02
same,glycan array binding signal (z-score),[30],-0.067
same,glycan array binding signal (z-score),[31],-0.081
same,glycan array binding signal (z-score),[32],-0.055
same,glycan array binding signal (z-score),Neu5Gc(a2-3)Gal(b1-4)Glc,-0.044
same,glycan array binding signal (z-score),[33],-0.055
same,glycan array binding signal (z-score),[34],-0.044
same,glycan array binding signal (z-score),[35],-0.051
same,glycan array binding signal (z-score),[36],-0.071
same,glycan array binding signal (z-score),Neu5Gc(a2-6)GalNAc,-0.093
same,glycan array binding signal (z-score),[37],-0.064
same,glycan array binding signal (z-score),[38],-0.063
same,glycan array binding signal (z-score),[39],-0.062
same,glycan array binding signal (z-score),[40],-0.074
same,glycan array binding signal (z-score),[41],-0.021
